# Experimental data: PubChem BioAssay AID488969 (Vanderbilt High Throughput Screening Facility, 2010)
# Where “and” joins values, the source holds several entries; their conditions need not be identical. Equal entries are not always repeated. The full ranking holds about 110,000 compounds; the median of “z-score” is about -0.1, and the highest 2% start at about 2. The list shows a part of the results. Calls of active or inactive are those of the source.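 How the source made its calls: active means z-score in the third read window above 3 or below -3; inactive means the rest.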
# Biological target: Metabotropic glutamate receptor 8 (Rattus norvegicus) (UniProt P70579)
# Assay: rat mGluR8 modulators via GIRK flux, primary screen, cell-based, thallium flux, HTS (AID 488969)
# Conditions: HEK293 rat mGluR8, GIRK (G protein-gated inwardly rectifying potassium channel) thallium flux, FluoZin2; at 10 µM; stronger effect = higher value; submaximal glutamate (EC20) added with thallium
# UniProt P70579, sequence (P70579 whole entry, looked up): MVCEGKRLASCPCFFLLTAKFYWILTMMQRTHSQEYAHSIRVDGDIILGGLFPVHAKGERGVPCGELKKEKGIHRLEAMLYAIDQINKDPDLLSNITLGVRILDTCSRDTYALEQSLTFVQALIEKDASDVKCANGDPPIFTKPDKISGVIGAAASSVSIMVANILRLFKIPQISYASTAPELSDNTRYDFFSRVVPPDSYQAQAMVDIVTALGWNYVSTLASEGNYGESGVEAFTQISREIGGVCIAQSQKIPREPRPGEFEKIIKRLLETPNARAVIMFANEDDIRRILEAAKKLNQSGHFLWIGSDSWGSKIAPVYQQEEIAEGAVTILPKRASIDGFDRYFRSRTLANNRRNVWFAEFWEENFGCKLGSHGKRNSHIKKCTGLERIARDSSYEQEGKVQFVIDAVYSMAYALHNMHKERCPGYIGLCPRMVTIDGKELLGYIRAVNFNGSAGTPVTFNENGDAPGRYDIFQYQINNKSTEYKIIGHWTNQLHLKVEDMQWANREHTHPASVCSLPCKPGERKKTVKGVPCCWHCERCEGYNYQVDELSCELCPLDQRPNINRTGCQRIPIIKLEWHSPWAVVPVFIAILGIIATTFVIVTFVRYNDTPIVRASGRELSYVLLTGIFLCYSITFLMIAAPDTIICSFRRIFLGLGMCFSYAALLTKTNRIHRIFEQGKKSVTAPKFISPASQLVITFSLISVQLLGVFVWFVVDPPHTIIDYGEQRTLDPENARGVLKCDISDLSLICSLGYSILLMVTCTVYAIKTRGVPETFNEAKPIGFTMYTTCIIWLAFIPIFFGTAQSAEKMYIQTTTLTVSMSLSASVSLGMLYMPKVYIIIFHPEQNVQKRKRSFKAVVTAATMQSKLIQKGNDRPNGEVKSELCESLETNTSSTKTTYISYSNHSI
row,Structure (SMILES),z-score
1,COc1cccc(C(=O)Nc2ccc(NC(=O)c3ccco3)cn2)c1,-0.787
2,CCOC(=O)c1c(C)nc(-c2ccccc2)nc1N,-0.442
3,O=C(CSc1ncn[nH]1)NN(c1ccccc1)c1ccccc1,0.138
4,CCN1N=C(c2ccccc2)Cn2c1nc1ccccc12,-0.288
5,COc1cc(S(=O)(=O)N(C)C)ccc1Br,-0.2
6,CN(c1cccc(NC(=O)CN2C(=O)c3ccccc3S2(=O)=O)c1)S(C)(=O)=O,0.157
7,COc1ccc(NC(=O)C(=O)NCCN2CCN(C(=O)c3cccs3)CC2)cc1,0.167
8,COCC(=O)N(Cc1cc2cc(OC)ccc2[nH]c1=O)c1ccc(C)cc1,-0.128
9,COc1cc(C(=O)OC(C)C(=O)N2CCc3ccccc3C2)ccc1OCC(=O)N1CCOCC1 (stereo not drawn),-0.0641
10,COc1cc(CCC(=O)OCc2nnc(-c3ccccc3)o2)cc(OC)c1OC,-0.336
11,COC(=O)Nc1ccc(S(=O)(=O)N2CCN(CCN3C(=O)C4C5C=CC(C5)C4C3=O)CC2)cc1 (stereo not drawn),0.0738
12,CC1(C)CC(=O)C=C(NCCN2CCNCC2)C1,0.258
13,COc1ccc(NC(=O)CN(C)S(=O)(=O)c2ccccc2)cc1,-0.772
14,O=C(/C=C/c1ccc2c(c1)OCO2)N1CCOCC1,-0.166
15,COc1ccc(NC(=O)CSc2nncn2C)cc1OC,0.24
16,CCNS(=O)(=O)c1ccc(NC(=O)c2ccccc2)cc1,-0.171
17,O=C(Nc1ccccc1N1CCN(C(=O)c2ccccc2)CC1)c1cc(Br)ccc1Cl,-0.569
18,C=CCSc1nc2ccccc2c2nc(-c3ccccc3)nn12,-0.206
19,Cc1ccc2nc(SC(C(=O)Nc3ccc(F)cc3)c3ccccc3)[nH]c2c1 (stereo not drawn),-0.117
20,COc1ccc(NC(=O)CN(C)S(=O)(=O)c2ccc3c(c2)CCC(=O)N3)c(OC)c1,-0.0695
21,COc1ccc(N(CC(=O)N/N=C/c2cccs2)S(=O)(=O)c2ccc(OC)c(OC)c2)cc1,-0.073
22,Cc1c(NC2=NC3(CCCCC3)Cc3ccccc32)c(=O)n(-c2ccccc2)n1C,0.474
23,CCc1ccc(-c2cc(C(=O)Nn3cnnc3)c3ccccc3n2)cc1,-0.0711
24,COc1ccc(/C=C2\SC(=O)N(CCNC(=O)Cn3cnnn3)C2=O)cc1,0.0317
25,Cc1cccc(OC2(c3ccccc3)OC(=O)c3ccccc32)c1C (stereo not drawn),-0.468
26,CCCn1c(C)cc(/C=C(\C#N)C(=O)OCC(=O)Nc2ccc(OC)c(Cl)c2)c1C,-0.243
27,CC1(C)Cc2nc3sc4c(SCC(=O)NCc5ccccc5)ncnc4c3cc2CO1,2.31

row,Structure (SMILES),z-score
1,CC1(CC(=O)N/N=C/c2ccc(OCc3ccc(Cl)cc3Cl)cc2)OCCCO1,0.0317
2,CC(C)NS(=O)(=O)c1ccc(OCC(N)=O)c(Cl)c1,-0.364
3,CCOc1c(S(=O)(=O)N2CCCC2)ccc(Cl)c1Cl,-0.567
4,CCOc1ccccc1NC(=O)C1CCN(S(=O)(=O)c2c(C)noc2C)CC1,-0.307
5,COc1ccc(CCNC(=O)c2cc3sc(Cl)cc3n2C)cc1OC,-0.316
6,Cc1ccc(C)c(N2CCN(C(=O)C(Cc3ccccc3)n3cccc3)CC2)c1 (stereo not drawn),0.715
7,C/C(=N\NC(=O)CCc1c[nH]c2ccccc12)c1ccc([N+](=O)[O-])cc1,-0.582
8,COc1ccc(NC(=O)C(c2ccc(C)cc2)N(C)C(=O)c2ccc(=O)[nH]c2)cc1 (stereo not drawn),-0.176
9,Cc1nc(SCC(=O)NC(C)(C)C)c2c(-c3cccs3)csc2n1,0.0419
10,CC(=O)C1C(c2cccc(Oc3ccccc3)c2)NC(=O)NC1(O)C(F)(F)F (stereo not drawn),0.0929
11,O=C(Cn1cnc2ccccc2c1=O)OCCCCN1C(=O)c2ccccc2C1=O,0.319
12,CSc1nnc2n(CCc3ccccc3)c(=O)c3c4c(sc3n12)CCCC4,0.0292
13,COCc1cc(C)nc(SCC(=O)c2ccc(O)c(O)c2)c1C#N,-0.257
14,CC1(C)N=C(N)N=C(N)N1c1ccccc1,0.0157
15,O=C1ON=C(c2ccccc2)/C1=C/c1ccc(OS(=O)(=O)c2ccccc2)cc1,0.291
16,Cc1nccn1S(=O)(=O)c1cc([N+](=O)[O-])ccc1Cl,-0.453
17,O=C(NCCc1cccs1)C1CC(c2c(Cl)cccc2Cl)=NO1 (stereo not drawn),-0.19
18,CC(C)CC(=O)NC(=S)Nc1ccccc1F,0.878
19,CC1(C)Cc2ccccc2C(/C(=N\Nc2cccc(Cl)c2)C(N)=O)=N1,active: 3.23
20,CC(=O)c1cc(-c2ccccc2)n(CCC(=O)NC2CCCCCCC2)c1C,-0.644
21,O=C(O)CC(=O)NC12CC3CC(CC(C3)C1)C2,-0.251 and -0.244
22,Cc1nnc(Sc2nc3c(c(=O)[nH]c(=O)n3C)n2CCCc2ccccc2)s1,0.0127
23,CC(C)NC(=O)c1cc(-c2ccc(Br)cc2)on1,1.31
24,Cc1c(Cl)cccc1NC(=O)c1cccc(NC(=O)CCC(=O)O)c1,-0.284
25,Cc1nc(Oc2cccc(Cl)c2)c2oc3ccccc3c2n1,0.314
26,COc1ccc(/C=N/NC(=O)c2nn(-c3ccc(C)c(C)c3)c(=O)c3ccccc23)cc1,-0.186
